# Laboratory results from the BET-seq Pho4 binding data (Le et al. 2018).
# This is one part of the list. Values were computed here from the reads of four pooled replicates and scatter widely.
# Target: T1, Pho4 (S. cerevisiae) (UniProt P07270)
# T1 sequence: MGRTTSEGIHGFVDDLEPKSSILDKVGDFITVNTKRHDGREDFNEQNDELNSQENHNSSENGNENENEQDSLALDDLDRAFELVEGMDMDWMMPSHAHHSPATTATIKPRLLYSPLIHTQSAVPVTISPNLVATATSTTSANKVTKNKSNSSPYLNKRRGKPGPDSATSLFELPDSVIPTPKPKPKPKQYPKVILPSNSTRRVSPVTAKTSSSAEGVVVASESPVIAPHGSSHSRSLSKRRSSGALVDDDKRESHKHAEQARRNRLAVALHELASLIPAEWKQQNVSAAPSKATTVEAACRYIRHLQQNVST
# Assay: relative binding free energy (BET-seq); higher = weaker binding
# Conditions: reference: library average
row,Sequence,relative binding free energy [kcal/mol]
1,AGGTGCACGTGGTGGT,0
2,CTAGTCACGTGGGTTA,-0.12
3,TGCCTCACGTGTGTGT,0.17
4,GGTGACACGTGGCGGT,-0.17
5,AAGGTCACGTGATATA,0.15
6,TTGGTCACGTGTTGCT,0.13
7,TGTTGCACGTGTTAAG,-0.02
8,TGATTCACGTGTAGCG,0.37
9,GGGGACACGTGATACT,0.35
10,TTAAGCACGTGTGATG,-0.01
11,CCTTGCACGTGTTGGT,0.15
12,CTTCTCACGTGAGGGT,0.29
13,TGGTGCACGTGTGAAG,0.01
14,GTGGGCACGTGCTTCG,-0.15
15,GGGGTCACGTGCCATG,0.04
16,GTTCTCACGTGAGTGG,0.38
17,CGGTACACGTGTTATA,0.06
18,CTAGGCACGTGGGTAG,-0.44
19,AATAGCACGTGTAATT,-0.08
20,CAGGACACGTGTGGAT,0.09
21,AGGTTCACGTGGGCTT,0.11
22,GTTGACACGTGGTTGG,0.03
23,ACGTACACGTGAGGGG,0.16
24,GGTGCCACGTGCGGGG,-0.13
25,TGGGGCACGTGGATGG,0.03
26,TGAGACACGTGTCTGT,-0.1

row,Sequence,relative binding free energy [kcal/mol]
1,TGCAGCACGTGGTAGT,-0.29
2,GTTATCACGTGGGCGT,0.06
3,GGTAACACGTGTGGTG,0.14
4,ACGTACACGTGTGTTA,0.13
5,ATGGGCACGTGGTCGA,-0.12
6,TGATGCACGTGATCGG,0.02
7,TGGGGCACGTGAGGCA,0.06
8,ATGGGCACGTGACTGT,0.03
9,GTTTTCACGTGTCGGG,0.32
10,TATAGCACGTGTGGGT,-0.02
11,GATTACACGTGGGTGG,0.09
12,TTCGGCACGTGCGCGG,-0.29
13,ATATTCACGTGTAGCG,0.16
14,TACTTCACGTGTTAGT,0.26
15,TTTGGCACGTGTTTTT,-0.01
16,GGCTTCACGTGTGATC,0.4
17,GTAAGCACGTGAGTCT,0.18
18,GTTGTCACGTGAAGTG,0.24
19,GAAGTCACGTGTGAAG,0.24
20,TGTTTCACGTGCATGT,0.28
21,AAGTTCACGTGTTACG,0.43
22,TTAAACACGTGCGTTT,0.11
23,GGTGACACGTGTGCTT,0.18
24,GACGTCACGTGGTGTA,0
25,AGCTGCACGTGATAGT,0.21
26,GGGCGCACGTGATGGT,0.13

row,Sequence,relative binding free energy [kcal/mol]
1,GTTATCACGTGTAGGG,0.21
2,AGTTTCACGTGGAACT,0.38
3,TTCATCACGTGGGGGA,0.08
4,CTTTCCACGTGGTGTT,-0.14
5,TGGGACACGTGGGATC,-0.01
6,TCAGTCACGTGATGGG,0.16
7,GGGCTCACGTGCGAGT,0.29
8,AATGGCACGTGGAGGG,-0.02
9,ACGGGCACGTGAAAGT,0.07
10,TGCAGCACGTGTGGGA,-0.04
11,TACCGCACGTGTTGGT,-0.07
12,TATGGCACGTGGTACT,-0.17
13,AACTGCACGTGGTGGT,-0.05
14,AAGGGCACGTGATAGT,0.01
15,CGGTGCACGTGGTAGA,-0.19
16,TGTGACACGTGTCTTG,0
17,TATTGCACGTGTATTG,-0.02
18,GTATACACGTGCGTTG,0.01
19,GTGGCCACGTGCAAGG,-0.12
20,AGCTACACGTGGGGAG,-0.06
21,AGCGTCACGTGTTAGA,0.09
22,GGGTGCACGTGCTCGT,-0.08
23,CCGGTCACGTGGGGAG,-0.05
24,GGGTGCACGTGTTCGT,0.09
25,GCTGTCACGTGAAGTA,0.33
26,TTAGTCACGTGGCCGT,0.2

row,Sequence,relative binding free energy [kcal/mol]
1,AGTATCACGTGTATAT,0.18
2,AGTATCACGTGGACGT,0.27
3,TATCGCACGTGTGATT,0.1
4,GGTTTCACGTGCAGAG,0.39
5,TATAGCACGTGGGACG,-0.19
6,GAATACACGTGGGGTG,-0.07
7,GATCTCACGTGGGGGA,0.21
8,TTCGACACGTGAGGAT,0.28
9,CGTAGCACGTGGAAGG,-0.04
10,AGAGGCACGTGTGTTT,-0.02
11,ATATTCACGTGAATTT,0.4
12,AGTAGCACGTGACGGT,0.01
13,TATAGCACGTGTTTGC,-0.24
14,TGGGGCACGTGCGATG,-0.13
15,CTTTTCACGTGAGCGT,0.17
16,TGTGACACGTGAGGAA,0.26
17,GTTAGCACGTGAGATT,0.31
18,TAGGCCACGTGATTTT,0.12
19,GTATTCACGTGGATAA,0.31
20,CGTTTCACGTGAGGGT,0.28
21,TTAAGCACGTGGGGTA,-0.17
22,GACGGCACGTGGAGTT,0.07
23,TCAGACACGTGTAGTG,0.03
24,TGGCGCACGTGTGCGT,-0.1
25,GGCGCCACGTGGGTAG,-0.09
26,TTTGGCACGTGGGCTA,-0.16

row,Sequence,relative binding free energy [kcal/mol]
1,GTTGTCACGTGGTGCG,0.11
2,ATTGACACGTGGTTGA,-0.02
3,CGGTGCACGTGGAATG,-0.02
4,GTCTGCACGTGCCGGG,0
5,TGTTACACGTGTTGAG,0.27
6,TGGGGCACGTGATAGG,0.04
7,ATACTCACGTGGTAGG,0.05
8,TCTTGCACGTGGTGGG,0
9,GGGCACACGTGGGTCT,-0.12
10,TTTAGCACGTGTGACG,-0.12
11,GTAGACACGTGAGATA,0.4
12,AGAGGCACGTGGGCAA,-0.26
13,AGGTCCACGTGGGTAT,-0.11
14,GCTTTCACGTGTAGGA,0.15
15,ACTTTCACGTGTGGGT,0.31
16,TTTGACACGTGGGGAC,-0.01
17,TTTCCCACGTGGTGTT,-0.03
18,GGCGGCACGTGAGGTG,0.17
19,TAGGACACGTGGTGTA,-0.13
20,AGGTTCACGTGCGGTC,0.45
21,TCCTTCACGTGGTAGG,0.27
22,GTGCTCACGTGCTTGG,0.19
23,CATGGCACGTGGTGAT,-0.29
24,TGAAACACGTGTAGGT,0.02
25,CGAGGCACGTGATGGA,0.13
26,ACGAGCACGTGGGTGG,-0.22

row,Sequence,relative binding free energy [kcal/mol]
1,CTTTCCACGTGTTTTA,0.07
2,CGGGGCACGTGGACTG,-0.17
3,AAAAGCACGTGGTTTA,-0.03
4,TTGTTCACGTGTCTTC,0.17
5,CATTACACGTGAAGGT,0.32
6,AGAGTCACGTGAGGGA,0.23
7,TTTCACACGTGGGGCG,-0.17
8,ATAAACACGTGATGTG,0.08
9,AGGTACACGTGTTCGT,0.03
10,TGGGTCACGTGCATAA,0.07
11,TGTCTCACGTGGTCGG,0.18
12,CTGTGCACGTGGGGGA,-0.3
13,CATAGCACGTGGGGGT,-0.26
14,ACTTGCACGTGAGGTG,0.13
15,TATGGCACGTGAGGGC,0.02
16,CGTGACACGTGTGATT,0.14
17,GCTTGCACGTGTGGGG,0.11
18,ATTATCACGTGTATGC,0.14
19,TTGGACACGTGGTAGG,0.08
20,TTGTGCACGTGAGGAT,0.15
21,GTTAACACGTGAGAAG,0.32
22,AGCTTCACGTGGGGAT,0.1
23,GTTAGCACGTGGGTGA,-0.15
24,AGTGGCACGTGACCGG,-0.14
25,TAGAGCACGTGGGAGA,-0.11
26,TAAGTCACGTGGCCGG,0.09

row,Sequence,relative binding free energy [kcal/mol]
1,TTGACCACGTGGGTGT,-0.12
2,GATCACACGTGAGGGG,0.33
3,TATAACACGTGAGGGT,0.28
4,GATTTCACGTGTAAGG,0.39
5,TCCTGCACGTGTGTGT,0.02
6,GGGAGCACGTGTTCTG,-0.18
7,GTGATCACGTGAGGAT,0.33
8,ATTTACACGTGGGATT,0.03
9,GGGGGCACGTGTTATA,-0.05
10,GGTTGCACGTGACAGG,0.16
11,TATTACACGTGGTTTC,0.13
12,GTAGACACGTGTTAAA,0.16
13,TAGTACACGTGAAGTT,0.32
14,TTGAGCACGTGTTGCG,-0.16
15,TAGTTCACGTGCGTCT,0.25
16,GCGGGCACGTGGTTCG,-0.21
17,TTTTACACGTGAGACT,0.16
18,CGAGGCACGTGGTTAA,0.05
19,ATCGTCACGTGGGTTA,0
20,TGGCTCACGTGGTGTA,0.07
21,TTTGTCACGTGATATT,0.28
22,GGCTTCACGTGATTGT,0.35
23,ATTTACACGTGACGTT,0.35
24,GTGATCACGTGGGCGT,-0.01
25,AGGGGCACGTGGTCAT,-0.24
26,TGGAGCACGTGGGTCT,-0.15

row,Sequence,relative binding free energy [kcal/mol]
1,GTTGGCACGTGTAGTG,0.02
2,AGTCTCACGTGTTGAT,0.26
3,ACGTGCACGTGTGATT,-0.06
4,GTCAGCACGTGGTTTG,-0.07
5,CGTGGCACGTGCGGAA,-0.1
6,GGTTACACGTGCTGTG,0.22
7,ATTTGCACGTGAGTAC,0.12
8,AGGTTCACGTGGGCGC,0.07
9,GTGGTCACGTGTGCTA,0.11
10,GTGTACACGTGTTGAC,0.1
11,ATGATCACGTGTTGTT,0.18
12,CGTTACACGTGTAAGT,0.21
13,GTGGCCACGTGATATG,0.02
14,TGGCTCACGTGTGCAT,0.17
15,TTTACCACGTGGTAAT,0.01
16,ATAGACACGTGGTTTA,-0.05
17,TGCGTCACGTGTTGTA,0.09
18,ATGTTCACGTGTTGAC,0.24
19,AGGAACACGTGGGGTT,-0.06
20,TTGGTCACGTGTCTCT,0.06
21,GTTGGCACGTGTACGA,0.07
22,TGTGTCACGTGGGGAC,0.01
23,CGTGGCACGTGGGTCA,-0.19
24,AGTGCCACGTGGGGTA,-0.38
25,GAATTCACGTGAAGGT,0.45
26,AATTTCACGTGGCGGG,0.23

row,Sequence,relative binding free energy [kcal/mol]
1,GGGGTCACGTGAGTTA,0.42
2,AATTCCACGTGTTTGG,0.04
3,GGTTTCACGTGGGATT,0.17
4,AGTGGCACGTGACGAG,-0.02
5,TAATTCACGTGATCGT,0.22
6,TTGCTCACGTGGAAGT,0.3
7,TTTGTCACGTGGTAAG,0.05
8,GTTAACACGTGTTGAA,0.26
9,AGGATCACGTGAGTTT,0.42
10,GTAATCACGTGATTGA,0.24
11,GGAATCACGTGGGGAA,0.18
12,GATGTCACGTGCACGG,0.19
13,GGTACCACGTGTGGGA,-0.03
14,GGAGGCACGTGGGGTC,-0.12
15,GTGAACACGTGGGATG,-0.21
16,AGGGTCACGTGTTCGT,0.07
17,GGCATCACGTGTTTTT,0.17
18,TAGCACACGTGTTGGG,0.18
19,ATGAACACGTGAAGTG,0.13
20,TTTTGCACGTGCAGAT,-0.17
21,GAGGACACGTGCGGTG,-0.04
22,CTTAGCACGTGGTTGG,-0.2
